Test results published in patent US12662541B2, “Antibody-drug conjugates against the receptor tyrosine kinase EphA5” (Rutgers, The State University of New Jersey, priority 2021, dated 2026).

Experiments:
[1] = target: T1, EphA5 antigen (Homo sapiens, UniProt P54756); assay: ka (1/Ms)
T1 construct: purchased R and D systems 3036-A5
Protocol: Table printed on a drawing sheet, FIG. 19
(§1) Head of the field: ka (1/Ms)
The patent's description of the figure: FIG. 19 is a table illustrating the Multi-cycle kinetic parameters of chimeric (VH0/VK0) and humanized variants (tested as purified proteins) binding to EphA5 antigen as determined using the Biacore T200. The relative KD was calculated by dividing the KD of the humanized variant by that of the VH0VK0 (first row) assayed in the same experiment. […]
Where the first naming reader finds the target: description_of_the_figure: humanized variants (tested as purified proteins) binding to EphA5 antigen as determined using the Biacore T200

[2] = target: T2, rhEphA5 antigen (Homo sapiens, UniProt P54756); assay: ka (1/Ms)
T2 construct: purchased R and D systems 3036-A5
Protocol: Table printed on a drawing sheet, FIG. 13
as §1
The patent's description of the figure: FIG. 13 is a table illustrating the single cycle kinetic parameters of chimeric (VH0/VK0) and humanized 11C12 variants (tested as cell culture supernatants) binding to rhEphA5 antigen as determined using the Biacore T200. The relative KD was calculated by dividing the KD of the humanized variant by that of the VH0/VK0 (top row) assayed in the same experiment. The variants marked with ‘*’ have KD values that are within two-fold of, or are better than, the chimeric antibody. The chimeric and selected variants marked in ‘#’ were identified as the main leads for purification. […]
Where the first naming reader finds the target: description_of_the_figure: humanized 11C12 variants (tested as cell culture supernatants) binding to rhEphA5 antigen as determined using the Biacore T200

[3] = Thermal ramp stability (UNcle biostability platform, Sypro Orange and SLS); assay type: physicochemical
From the text: Thermal ramp stability experiments (Tm and Tagg) are well established methods for ranking proteins and formulations for stability. A protein's denaturation profile provides information about its thermal stability and represents a structural ‘fingerprint’ for assessing structural and formulation buffer modifications. A widely used measure of the thermal structural stability of a protein is the temperature at which it unfolds from the native state to a denatured state. For many proteins, this unfolding process occurs over a narrow temperature range and the mid-point of this transition is termed ‘melting temperature’ or ‘Tm’. To determine the melting temperature of a protein, UNcle measures the fluorescence of Sypro Orange (which binds to exposed hydrophobic regions of proteins) as the protein undergoes conformational changes.
Samples for each variant were formulated in PBS and Sypro Orange at a final concentration of 1 mg/mL. […] Samples were subjected to a thermal ramp from 25-95° C., with a ramp rate of 0.3° C./minute and excitation at 473 nm. Full emission spectra were collected from 250-720 nm, and the area under the curve between 510-680 nm was used to calculate the inflection points of the transition curves (Tonset and Tm). Monitoring of static light scattering (SLS) at 473 nm allowed the detection of protein aggregation, and Tagg (onset of aggregation) was calculated from the resulting SLS profiles. Thermal stability values determined lie in a broad range from 57.9 to 69.6° C. (Tm1), 55.1 to 65.2° C. (Tonset) and 65.6 to 70.2° C. (Tagg) with the humanized leads generally showing improved profiles when compared to the chimeric antibody. […] All humanized antibodies appear to have a higher Tm1, Tonset and Tagg compared to the chimeric antibody.

[4] = test system: PDX TM00219 (LG1049F), lung adenocarcinoma; assay: PDX TM00219 efficacy; assay type: in vivo, mice
Protocol: The present studies were performed using female NSG™ mice purchased from Jackson Laboratories, reference number TM00219 (LG1049F). These mice are extremely immunodeficient and carry two mutations: severe combined immune deficiency (scid) and a complete null allele of the IL2 receptor common gamma chain (IL2rg^null). The scid mutation is a mutation in the DNA repair complex protein Prkdc and renders the mice B and T cell deficient. The IL2rg^null mutation prevents cytokine signaling through multiple receptors, leading to a deficiency in functional NK cells. This severe immunodeficiency allows the implantation of patient derived xenografts (PDX) and growth of human tissue-based tumors in the mice. These tumors have similar characteristics to the human tumors from which they are derived (e.g., gene expression) and are predictive of human response to therapeutic agents.
Mice received 5 weekly doses of ADC1 or ADC2 at 10 mg/kg or PBS via tail vein injection. Animals were dosed on days 0, 7, 14, 21 and 28 followed by 3 weeks of observation (day 28-50) without treatment. The number of mice used per group averaged n=8 with some mice presenting with more than 1 tumor implanted subcutaneously. In those cases, each tumor size was measured and recorded independently. Measurements were performed 2-3 times weekly with the aid of a digital caliper (Fisherbrand™ Traceable™ Digital Carbon Fiber Calipers). Studies lasted on average 50 days or until maximum allowed tumor volume was reached and/or skin ulceration was noted. All studies included a control group of an equal number of mice to those in the treatment group. Control groups received PBS tail vein injections and were submitted to the same handling procedures as ADC1 and ADC2 treated mice. First treatment was administered when tumors reached 100-150 mm^3 volume.

[5] = test system: H522-derived Xenograft Model of Human Lung Cancer; assay: H522 xenograft efficacy; assay type: in vivo, mice; details: for tumor regression: 3 doses
[6] = test system: H460-derived xenograft model of human lung cancer; assay: H460 xenograft efficacy; assay type: in vivo, mice; details: 10 mg/kg every 5 days, 3 doses, n=9
[7] = test system: patient-derived xenograft model (PDX) of breast cancer, ER, PR, and HER2 negative invasive ductal carcinoma; assay: Triple-negative breast cancer PDX efficacy (Example 4); assay type: in vivo, mice; details: 5 doses of 10 mg/kg every 7 days; controls reached endpoints within 16 days
Protocol: Lastly, a study was performed using a patient-derived xenograft model (PDX) of breast cancer. Briefly, tissue from an ER, PR, and HER2 negative (triple-negative) invasive ductal carcinoma breast tumor was xenografted into mice. […] After engraftment but prior to treatment, xenograft tissue was evaluated for the expression of EphA5 (FIG. 98, left). Treatment consisted of 5 doses of MMAE-conjugate ADC at 10 mg/kg administered every 7 days.

[8] = test system: A549 cell line-derived human lung cancer xenograft model; assay: A549 xenograft efficacy; assay type: in vivo, mice
[9] = test system: H460 cells (EphA5-positive); assay: Cell death time-course (Green Object Count), H460; assay type: cell-based, human; details: dose- and time-dependent, FIG. 4A

T2 sequence (P54756 25-1037 limits assumed): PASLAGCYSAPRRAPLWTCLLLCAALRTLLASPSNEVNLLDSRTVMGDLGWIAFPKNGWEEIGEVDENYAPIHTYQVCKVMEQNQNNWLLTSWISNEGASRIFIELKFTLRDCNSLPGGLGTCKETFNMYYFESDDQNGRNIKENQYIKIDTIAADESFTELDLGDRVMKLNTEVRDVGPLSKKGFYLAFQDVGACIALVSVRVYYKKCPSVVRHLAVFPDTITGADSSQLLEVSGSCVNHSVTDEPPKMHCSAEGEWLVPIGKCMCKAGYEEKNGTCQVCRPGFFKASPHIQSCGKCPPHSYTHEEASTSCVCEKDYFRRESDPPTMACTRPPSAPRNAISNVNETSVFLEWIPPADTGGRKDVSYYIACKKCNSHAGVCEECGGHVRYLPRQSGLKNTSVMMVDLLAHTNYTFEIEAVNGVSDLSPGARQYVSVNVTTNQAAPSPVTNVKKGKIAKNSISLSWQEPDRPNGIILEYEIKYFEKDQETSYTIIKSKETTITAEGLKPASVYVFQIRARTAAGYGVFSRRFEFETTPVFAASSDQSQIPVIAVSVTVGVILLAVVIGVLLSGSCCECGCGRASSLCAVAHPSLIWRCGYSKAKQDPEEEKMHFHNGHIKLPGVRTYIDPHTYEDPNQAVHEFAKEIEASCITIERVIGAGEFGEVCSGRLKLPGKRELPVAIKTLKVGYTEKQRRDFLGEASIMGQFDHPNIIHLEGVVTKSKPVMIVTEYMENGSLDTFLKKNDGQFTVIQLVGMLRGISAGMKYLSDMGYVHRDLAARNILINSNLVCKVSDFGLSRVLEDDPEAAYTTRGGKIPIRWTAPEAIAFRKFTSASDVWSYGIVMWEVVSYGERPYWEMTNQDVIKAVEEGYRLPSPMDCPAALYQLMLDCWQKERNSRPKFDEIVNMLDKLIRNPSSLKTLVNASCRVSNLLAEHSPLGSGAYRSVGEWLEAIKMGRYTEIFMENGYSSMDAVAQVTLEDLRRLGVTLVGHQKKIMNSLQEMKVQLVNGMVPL
T1 sequence (P54756 25-1037 limits assumed): as above

B1: VH5/VK3: humanized anti-EphA5 IgG1/kappa antibody, heavy chain SEQ ID NO:39, light chain SEQ ID NO:40 (antibody)
heavy: EVQLVESGGGLVQPGGSLKLSCAASGFTFSTFGIHWVRQAPGKGLEWVAYISGASTTIYYADSVKGRFTISRDNSKNTLYLQMNSLRAEDTAVYYCARYGTSFPYGLDYWGQGTLVTVSSASTKGPSVFPLAPSSKSTSGGTAALGCLVKDYFPEPVTVSWNSGALTSGVHTFPAVLQSSGLYSLSSVVTVPSSSLGTQTYICNVNHKPSNTKVDKRV[letters of human IgG1 Fc left out]
light: DIVMTQSPDSLAVSLGERATINCKASQSVDYDGDSYMNWYQQKPGKAPKLLIYGASNLESGIPDRFSGSGSGTDFTLTISRLEPEDAAVYYCQQSNEDPFTFGQGTKLEIKRTVAAPSVFIFPPSDEQLKSGTASVVCLLNNFYPREAKVQWKVDNALQSGNSQESVTEQDSKDSTYSLSSTLTLSKADYEKHKVYACEVTHQGLSSPVTKSFNRGEC
For B1, the “ka” value [1] was 1.21e-06 M⁻¹ s⁻¹, the “ka” value [2] was 1.36e-06 M⁻¹ s⁻¹ and the “Average Tonset (° C.)” value [3] was 63.6 °C. The “Tagg ranking among the leads (SLS profiles)” value [3] was “highest Tagg values”, the “Tm1, Tonset and Tagg compared to the chimeric antibody VH0/VK0” value [3] was “VH5/VK3 has a higher Tm1, Tonset and Tagg compared to VH0/VK0” and the “Average Tm1 (° C.)” value ([3]; 1 mg/mL in PBS, ramp 25-95° C.) was 69.0 °C. The “Average Tagg 473 (° C.)” value ([3]; SLS at 473 nm) was 70.2 °C.

B2: VH5Vk3-ThioBridge®-VCP-MMAE (conjugate)
heavy: EVQLVESGGGLVQPGGSLKLSCAASGFTFSTFGIHWVRQAPGKGLEWVAYISGASTTIYYADSVKGRFTISRDNSKNTLYLQMNSLRAEDTAVYYCARYGTSFPYGLDYWGQGTLVTVSSASTKGPSVFPLAPSSKSTSGGTAALGCLVKDYFPEPVTVSWNSGALTSGVHTFPAVLQSSGLYSLSSVVTVPSSSLGTQTYICNVNHKPSNTKVDKRV[letters of human IgG1 Fc left out]
light: DIVMTQSPDSLAVSLGERATINCKASQSVDYDGDSYMNWYQQKPGKAPKLLIYGASNLESGIPDRFSGSGSGTDFTLTISRLEPEDAAVYYCQQSNEDPFTFGQGTKLEIKRTVAAPSVFIFPPSDEQLKSGTASVVCLLNNFYPREAKVQWKVDNALQSGNSQESVTEQDSKDSTYSLSSTLTLSKADYEKHKVYACEVTHQGLSSPVTKSFNRGEC
In the case of B2, the “tumors remaining at the end of the study” value [4] is reported as “Five”, the “tumor response (tumor volume)” value ([4]; 5 weekly doses of 10 mg/kg tail vein, ADC2 = VH5Vk3-ThioBridge®-VCP-(SN-38)2) is reported as “full and sustained regression of tumors” and the tumors regressed completely ([4]; of a total of 11 tumors) is reported as 6 tumors. For the same molecule, the “time regression was sustained” value ([5]; first study (FIG. 86)) was 60 days, the tumor regression ([5]; first study (FIG. 86), group 3 n=10, weekly) was “full regression was observed for all tumors of group 3” and the “time regression was sustained” value ([5]; second study (FIG. 88)) was 50 days. For the same molecule, the tumor regression ([5]; second study (FIG. 88), n=5, weekly) was “full regression in all tumors of the experimental group”, the “tumors with partial regression” value [6] was 8 tumors and the tumor growth [7] was “little measurable tumor growth”. The tumor response ([8]; 10 mg/kg i.v. weekly, 3 doses) was “full regression of all tumors”, the “tumor response of tumors progressing after VH5Vk3-ThioBridge®-(VCP-SN-38)2” value ([8]; 10 mg/kg on days 20, 26 and 32, observed until day 38) was “tumor growth inhibition sustained from day 20-38” and the “killing of EPHA5+ cells” value [9] was “able to kill EPHA5+ cells”.
